Experimental data published in PubChem BioAssay AID489012 (National Center for Advancing Translational Sciences (NCATS), 2010).
Inconclusive results, whose numbers are uncertain, are shown with a selection of clear calls. Where the call is inconclusive, the potency comes from a doubtful curve fit. Active and inactive are the calls of the source. The call rests on the fitted dose curve; in most records, active means well fitted activation curve with a large enough effect; inconclusive means small, poorly fitted or top-dose-only effect; inactive means no such curve, though single readings can be large or run the other way.

Target: Relaxin receptor 1 (Homo sapiens) (UniProt Q9HBX9)
Assay: qHTS Assay for Agonists of the Relaxin Receptor RXFP1: RXFP1 Hit Validation; further: nearly all actives have a fitted effect of over 65% in size;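 on activation: cAMP rise lowers the TR-FRET signal in lysed cells with PDE4 inhibitor present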
Conditions: HEK293T-RXFP1 cAMP TR-FRET, 30 min; series mostly up to 115 µM
Potency means the concentration at half of the fitted maximal effect; tags describe the fitted curve by direction and shape.

UniProt Q9HBX9, sequence (Q9HBX9 whole entry, looked up): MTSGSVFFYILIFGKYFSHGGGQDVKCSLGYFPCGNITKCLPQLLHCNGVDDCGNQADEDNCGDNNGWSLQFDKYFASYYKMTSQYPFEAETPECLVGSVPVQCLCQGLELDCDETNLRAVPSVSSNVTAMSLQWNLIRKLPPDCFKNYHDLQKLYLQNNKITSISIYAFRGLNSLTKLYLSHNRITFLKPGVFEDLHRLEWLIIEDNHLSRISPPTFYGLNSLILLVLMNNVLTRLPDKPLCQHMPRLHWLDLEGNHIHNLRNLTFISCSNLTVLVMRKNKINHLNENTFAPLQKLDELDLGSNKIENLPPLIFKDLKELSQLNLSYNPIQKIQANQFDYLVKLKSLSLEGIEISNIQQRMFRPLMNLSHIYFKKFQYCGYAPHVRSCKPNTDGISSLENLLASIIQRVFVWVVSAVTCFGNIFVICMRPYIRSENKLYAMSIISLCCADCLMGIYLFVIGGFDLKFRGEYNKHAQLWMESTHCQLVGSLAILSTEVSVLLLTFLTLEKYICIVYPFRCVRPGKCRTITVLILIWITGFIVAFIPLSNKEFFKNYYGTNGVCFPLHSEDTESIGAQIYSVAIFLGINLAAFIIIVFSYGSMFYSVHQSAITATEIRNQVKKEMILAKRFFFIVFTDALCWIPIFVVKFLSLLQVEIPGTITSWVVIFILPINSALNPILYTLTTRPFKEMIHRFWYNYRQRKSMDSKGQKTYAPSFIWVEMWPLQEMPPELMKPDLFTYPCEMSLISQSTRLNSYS

Compound | Potency
COc1ccc(CN2C(=O)c3cccnc3C2=O)cc1S(=O)(=O)NCc1ccc(C)o1 | inconclusive: 24.5 µM [activator, partial curve]
CCN(CC)S(=O)(=O)c1ccc2c(c1)nc(SCc1nc3ccsc3c(=O)[nH]1)n2CC | inconclusive: 0.219 µM [activator, full curve]
Cc1c(Cl)cccc1NC(=O)CSc1ccc(-c2cccnc2)nn1 | inconclusive: 34.6 µM [activator, partial curve]
CCOc1ccccc1C(=O)Nc1ccc(S(=O)(=O)Nc2cc(OC)nc(OC)n2)cc1 | inconclusive: 74.9 µM [activator, partial curve]
CCC1(C)Cc2c(sc3c2c2ncnn2c2nnc(SCC(=O)NCc4ccco4)n32)CO1 (stereo unspecified) | active: 12.3 µM
Cc1cc(C)nc(NS(=O)(=O)c2ccc(N3C(=O)c4ccccc4C3=O)cc2)n1 | active: 29.8 µM
CCn1c(SCC(=O)Nc2ccc(NC(C)=O)cc2)nc2c1c(=O)n(C)c(=O)n2C | inconclusive: 34.6 µM [activator, partial curve]
CNC(=O)c1ccccc1NC(=O)c1ccco1 | inconclusive: 52.3 µM [activator, partial curve]
COC(=O)c1cc(CN2C(=O)c3ccccc3C2=O)c(O)c([N+](=O)[O-])c1 | inconclusive: 33.5 µM [activator, partial curve]
CN(C)c1ccc(C(=S)N2CCN(S(=O)(=O)c3ccccc3)CC2)cc1 | inactive
CC(=O)c1sc(NC(=O)C(C)C)nc1C | active: 15.4 µM
